This note sets out measurements from the supplement of paper PMC10126150.

Values marked as one replicate rest on one cluster of the flow cell; about a third of the high ones do not repeat.
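Note: ATP exposure 15 min at 22 °C before imaging.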

The test system of this data set is ATP. The data set can be described thus: switch fluorescence ratio, 500 uM ATP over buffer (Cy3 cluster intensity, sum of 5 cycles each) (fold (ratio)); higher = stronger signal-on switching upon ATP binding; sequences stand for … in TCGTCGGCAGCGTCAGATGTGTATAAGAGACAGTTTTTTTTTTTTTTTTTTTTTTTTT…TC. The conditions noted are these: aptamer strand: ATP DNA aptamer (quencher-CACCTGGGGGAGTATTGCGGAGGAAGG + anchor), 100 nM annealed; ATP concentration: 500 uM; one replicate. An outline of the steps: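 Imaging in selection buffer was followed by imaging after 15 min with 500 uM ATP at 22 °C, for Cy3-labelled switching-strand clusters annealed to 100 nM quencher-labelled ATP aptamer on a modified Illumina MiSeq flow-cell. Five of these buffer/ATP cycles ran, separated by NaOH stripping and re-annealing. The fluorescence ratio per cluster is summed target-cycle over summed buffer-cycle Cy3 intensity, averaged per switch-domain sequence; clusters outside 100-1000 RFU were removed.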
For the sequence GCAGTTTCCA, the switch fluorescence ratio was 0.991.

As for CTAGTTCAAA, the switch fluorescence ratio was found to be 0.962.

As for AGTCCCTCG, the switch fluorescence ratio is 1.

As to AAGTAACTTA, the switch fluorescence ratio is 1.06.

On to TACGGTGTA, for which the switch fluorescence ratio turned out to be 0.99.

As for TTTTCGAGCG, the switch fluorescence ratio is 0.99.

Consider AGGATGCTGG, for which the switch fluorescence ratio was 1.08.

Consider TGTTATCTTC, for which the switch fluorescence ratio is 0.982.

For CTATATAAGT, the switch fluorescence ratio was 1.01.

As to GGCTGATGA, the switch fluorescence ratio is 0.973.

GTCAGGGTTA: the switch fluorescence ratio was 1.

Take GGATGAAGTG: the switch fluorescence ratio is 1.02.

As for TACAGCCTTG, the switch fluorescence ratio came to 0.986.

Regarding TCGTTGTGCA, the switch fluorescence ratio is 1.01.

TTAAGATTAT: the switch fluorescence ratio turned out to be 0.975.

On to AATATATACC, for which the switch fluorescence ratio came out at 1.08.

Consider AGATCCGTGT, for which the switch fluorescence ratio was 1.

With GTCTTAGGGG, the switch fluorescence ratio worked out at 1.

CAGGAGATAA: the switch fluorescence ratio stood at 1.01.

Regarding CATAACGCAG, the switch fluorescence ratio came out at 1.03.

Consider ATGGGCGCGT, for which the switch fluorescence ratio amounted to 1.07.

As for ATACTCTAAT, the switch fluorescence ratio came to 1.06.

Take TCGTTCATTA: the switch fluorescence ratio came out at 1.03.

Regarding ATAGCTGGCT, the switch fluorescence ratio turned out to be 1.09.

TTAACCGCT: the switch fluorescence ratio was determined as 1.1.

As for ACTTTTGACA, the switch fluorescence ratio stood at 1.01.

For the sequence TGTTACAACA, the switch fluorescence ratio was 1.05.

On to CTGTTAGTCG, for which the switch fluorescence ratio worked out at 1.04.

As to CGACAGCTGA, the switch fluorescence ratio came out at 1.12.

In the case of GAGGCGCACA, the switch fluorescence ratio is 1.02.

Take AACGAATCCT: the switch fluorescence ratio stood at 1.07.

With GCCATAGTGC, the switch fluorescence ratio turned out to be 1.06.

Take ACCGGCGGAA: the switch fluorescence ratio stood at 1.09.

Turning to CTGGGGTTG, the switch fluorescence ratio amounted to 0.996.

As for AGCCCGAGTC, the switch fluorescence ratio amounted to 1.05.

Consider TATCATATAT, for which the switch fluorescence ratio worked out at 0.97.

As to TTGATGGACA, the switch fluorescence ratio came to 1.06.

On to TAAGATAAAG, for which the switch fluorescence ratio was found to be 1.03.

Consider CGAGCGCAGG, for which the switch fluorescence ratio turned out to be 1.35.

Turning to TATTGTTGAA, the switch fluorescence ratio was 0.999.

As for AATGTGCCG, the switch fluorescence ratio was determined as 0.976.

Turning to TACGTATCGG, the switch fluorescence ratio was determined as 0.989.

Regarding ACTCTGAATA, the switch fluorescence ratio is 1.42.

AAGACTAGGG: the switch fluorescence ratio was 0.813.

Take TACTACATTA: the switch fluorescence ratio was determined as 1.05.

On to AAAGTAGAC, for which the switch fluorescence ratio is 0.991.

Consider TGCAGTCGTA, for which the switch fluorescence ratio worked out at 1.04.

As for ACGGCGTAAG, the switch fluorescence ratio came out at 0.99.

As for TATGTAAGAC, the switch fluorescence ratio worked out at 1.17.

As for CGGTCGGTGA, the switch fluorescence ratio came out at 0.975.

As for ATGCTAGTAT, the switch fluorescence ratio was 0.976.

TCATAAGCGT: the switch fluorescence ratio was 0.993.

As for GTGCTTAGCT, the switch fluorescence ratio came to 0.975.

In the case of CCCGCGTAGT, the switch fluorescence ratio came out at 1.21.

In the case of AATTTAGACA, the switch fluorescence ratio worked out at 1.02.

With GCCTTGATGC, the switch fluorescence ratio stood at 1.04.

Take CGGAAGTAAC: the switch fluorescence ratio stood at 1.17.

With CATCCTCCCA, the switch fluorescence ratio came to 1.08.

With CATGTTTTAT, the switch fluorescence ratio came out at 1.06.

For the sequence TCCCCCGTTT, the switch fluorescence ratio was found to be 1.14.

Consider GAAATCGTAT, for which the switch fluorescence ratio was determined as 1.01.

Take TGACGGCGGG: the switch fluorescence ratio worked out at 0.984.

As for TCCCAGTACC, the switch fluorescence ratio came to 1.32.

For the sequence AAGACCGCTG, the switch fluorescence ratio stood at 0.972.

With TGCATTGAG, the switch fluorescence ratio is 0.97.

In the case of TTGTGGATGT, the switch fluorescence ratio is 0.957.

As for TGGAGTGCTC, the switch fluorescence ratio turned out to be 1.04.

Turning to GGGGGATGAC, the switch fluorescence ratio came to 1.03.

On to GGCTAAGAAG, for which the switch fluorescence ratio was found to be 1.01.

AAACGTAAGC: the switch fluorescence ratio was 1.07.

Turning to TCAGACCACC, the switch fluorescence ratio is 1.13.

On to ATGCGGTGCT, for which the switch fluorescence ratio stood at 0.932.

GAACTGTGAG: the switch fluorescence ratio was 1.03.

Regarding CTCTTACTTC, the switch fluorescence ratio worked out at 1.04.

For the sequence TGGTGTCGAA, the switch fluorescence ratio was found to be 0.982.

For the sequence CTACATAAGC, the switch fluorescence ratio was 1.1.

As to CTTTGGGGTG, the switch fluorescence ratio worked out at 1.04.

On to AATTGCAACC, for which the switch fluorescence ratio came to 1.06.

As to GATGTGCATA, the switch fluorescence ratio turned out to be 1.03.

Take TATCAAGGAA: the switch fluorescence ratio worked out at 1.02.

On to ACGGTGTGAG, for which the switch fluorescence ratio is 0.994.

Turning to GTATTTAAGT, the switch fluorescence ratio worked out at 0.996.

For the sequence GTGTGTCA, the switch fluorescence ratio is 0.961.

Turning to TAACGTCGAA, the switch fluorescence ratio turned out to be 0.985.

Regarding GCGCGGCCCG, the switch fluorescence ratio is 0.97.

For the sequence ACGAGCGAAG, the switch fluorescence ratio turned out to be 0.944.

As to ATGTTAATTT, the switch fluorescence ratio amounted to 0.967.

As to ACCTAACGGC, the switch fluorescence ratio worked out at 1.34.

CACCCAGCAC: the switch fluorescence ratio turned out to be 1.8.

With GCTACGGCCG, the switch fluorescence ratio was 1.

Regarding GGATTATTAC, the switch fluorescence ratio was 0.912.

Turning to CAAAGGGTTC, the switch fluorescence ratio amounted to 1.04.

With GGCGTAAGTA, the switch fluorescence ratio was determined as 1.04.

Take TTTATGCGC: the switch fluorescence ratio was found to be 1.03.

For the sequence GAGGCGTGTC, the switch fluorescence ratio came out at 1.04.

With GTTGGCCTAG, the switch fluorescence ratio amounted to 0.984.

As for GGTACTAGG, the switch fluorescence ratio amounted to 0.98.

GCCCTCATCG: the switch fluorescence ratio is 0.983.

Turning to GTGACTCGG, the switch fluorescence ratio turned out to be 0.984.

On to GGCACGAACG, for which the switch fluorescence ratio was 1.26.

As to TTCGTGCTCG, the switch fluorescence ratio came to 1.02.

On to CGTATATAGA, for which the switch fluorescence ratio turned out to be 1.01.

On to ACTCGAACCA, for which the switch fluorescence ratio is 1.07.

GCCTGGCATT: the switch fluorescence ratio amounted to 1.

In the case of GGAGGTAATG, the switch fluorescence ratio was determined as 1.01.

Regarding TGCTAGACC, the switch fluorescence ratio came out at 1.04.

As for TCACTTTAAC, the switch fluorescence ratio came out at 1.06.

Consider CTAAAACAAA, for which the switch fluorescence ratio came to 0.937.

In the case of ATCTGGAAGT, the switch fluorescence ratio was 0.99.

On to CTGTCGACTA, for which the switch fluorescence ratio is 0.982.

For AGTGGTTCAC, the switch fluorescence ratio was determined as 0.987.

For the sequence TGAGACGCAT, the switch fluorescence ratio is 1.41.

For TTTTGCTAAC, the switch fluorescence ratio was determined as 1.02.

Regarding GGATTCGGGG, the switch fluorescence ratio amounted to 1.02.

As to GAACACCGGC, the switch fluorescence ratio was 1.04.

With CGACTGGCTA, the switch fluorescence ratio turned out to be 1.5.

Consider TCCACATAGG, for which the switch fluorescence ratio worked out at 1.07.

In the case of TGTGAGCGAC, the switch fluorescence ratio was 1.05.

For the sequence CATCTGACTA, the switch fluorescence ratio was determined as 1.05.

TACGTTACGT: the switch fluorescence ratio amounted to 1.35.
